# Measurements taken from the supplement of paper PMC11417369.
# This is one part of the list.
# Test system: PfSIP2 AP2 domain 1 (GST-tagged)
# Experiment: gcPBM binding intensity (ln(normalized median fluorescence intensity)); higher = stronger DNA binding
# How it was run: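 GST-tagged P. falciparum DNA-binding domains produced in E. coli were incubated for 1 h on an Agilent 4 × 180k array of primer-extended double-stranded 36-bp intergenic genomic probes with negative controls. Binding intensity is the highest Masliner-normalised natural-log median intensity across replicate spots of either probe orientation, with bound protein detected by Alexa488 anti-GST antibody at 488 nm.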
row,Sequence,gcPBM binding intensity (ln)
1,TTCTTACATAAAATATCACACACATAAAAAAACAAT [CACACA_site8576],7.36
2,GTAATAAGAATTATAGTGCAATGTAATACATTTATA,7.97
3,TGGAAAATTATTAACACACACATATAAATATATATA [CACACA_site46],7.23
4,TAATTTGAACGGTACAGTACTCTTTTTCTTTTTCAT [XGTACX_site5534],6.66
5,ATATATTTTTTCAATTGTACGTTTTAATAATATTTA [XGTACX_site2130],7.17
6,AATACAACATAATGAAGTACTGTATTTTATATTACT [XGTACX_site4885],6.82
7,ATGAAATCTTTAGAATATAGATGATGTTATTTAATT [XGTACX_negctrl_site511],6.68
8,TTTCTTTGAATAAATACACACGAGAAATGAAAGTAG [CACACA_site8490],7.6
9,TAAAGGAGCCTATGAACACACACATGTACTTATATT [CACACA_site9351],6.85
10,AATTGTTTGTTTGGGTGTACATGGTTCTATATAAAT [XGTACX_site7940],7.32
11,AATAAAATATAAACATTATATATATATATATATATA [GTGCAC_negctrl_site58],9.92
12,ATTTTTTCTTTTTTTTTTCCGTTTTTTTGGACATTT [CACACA_negctrl_site1174],6.8
13,ATAAAAAATAAATAAGGTACAGAACATTTATACATT [XGTACX_site1783],6.84
14,AAATTAAACAATAAATGTACATATATATTTGTATAT [XGTACX_site1092],7.12
15,AACAAGGTATTAGGGTGTACTATATATATTTATATT [XGTACX_site7776],7.02
16,TAATAAAGTATTTTGCGTACTTATTTTATTCTTCTA [XGTACX_site2095],6.67
17,ATTGTGTGAACAAAATGTACATTTTCTCTACATTAA [XGTACX_site1333],6.88
18,TGGCATATATATAAATGTACTTTCTTTCTATCTGTT [XGTACX_site8483],6.75
19,TTATATATATGTAATTGTACTTTTAATTTTTTTTTA [XGTACX_site4357],6.76

row,Sequence,gcPBM binding intensity (ln)
1,TATTTTATAATAGGCACACATATAAAAATATATATA [CACACA_site4127],7.23
2,TAATTTTTTTTAAATACACACTGAAATGTGAATTTT [CACACA_site4476],6.57
3,ATAAAAATAAAAGACGCATGTTCTTAAAATAAGAAC [TGCATGCA_site189],6.78
4,ATATATATATATAATGCACACATTATGAATTATGTA [CACACA_site3384],9.09
5,AAACAAAATGGTAACACACACATATATATATATATA [CACACA_site1939],9.36
6,GTGTGATCTTTTGAAAGTACATTTTTTTTTTTTTTT [XGTACX_site6311],7.28
7,AGGTCATACATAAAATGTACATATATATAAATATAT [XGTACX_site7147],6.97
8,TGAACACCCAAATACACACACTCAAAAAAAAAAAAG [CACACA_site5467],7.02
9,ACAAGAATACACCACGCACACACACTAGAGAAAAAA [CACACA_site9276],7.42
10,ATTTCATTAAAGATTACATGCAATTCTATATTATTT [TGCATGCA_site260],6.87
11,AATTGCTCGATATATGCACACAGTTTTGTTATTTTT [CACACA_site8465],7.47
12,AACATAAATTACTTTTTACACACTAATATAAAATAC [CACACA_site8297],7.12
13,AAAACACGCGGACACACACACACACGCCCACATATA [CACACA_site7105],7.29
14,ACTTTCAAGGATGTACGTACATATGTATTTTATAAC [XGTACX_site6714],7.59
15,TTTTTTATGATTAACACACACACAAAAAAAAAAAAA [CACACA_site4130],7.01
16,TCATGTAACCATTCATGTACTCAAAAAAAAAAAAAA [XGTACX_site1027],7.12
17,AAAAAAAAAACAAATACACACGCACCCAAAAAAAAA [CACACA_site8166],10.1
18,AAATGAAAGAACAGCACACATATATATTATATATAA [CACACA_site2002],6.85
19,TTTTATATATATATATATATATATATATATGTATAT [CACACA_negctrl_site173],8.24

row,Sequence,gcPBM binding intensity (ln)
1,AACATATTTTTTCTTAAACACACACCGATATATATA [CACACA_site8919],7.38
2,AATATATATTTCTAAGATAAAACCCAAGGATAAAAA [CACACA_negctrl_site735],6.95
3,TCTGTAAATATGTATACACACATATCTGATCAATAT [CACACA_site5743],7.03
4,TTATGGATAAATAAATGTACGTTAAGATAACACAAA [XGTACX_site4208],6.89
5,ATATACATATGTGTGTGTACTTATATCACATTTTTG [XGTACX_site3785],7.25
6,TCGACAAAGGCATATACACACATTTGTAACATAAAT [CACACA_site4471],6.78
7,GTTTTTTTGTTTTAGTGTACCTAAAACTGCATGTAG [XGTACX_site294],7.38
8,ATTTCTCTATAGTAATGTACAAAAAAAAGGAAAAAG [XGTACX_site2757],7.13
9,ACATAAAATAAATATACACACATATGTATTTATTAT [CACACA_site5648],6.91
10,AAACCGAATTTACATGAATGTAAATTATGTTGTTTT [CACACA_negctrl_site1834],6.73
11,CAAGAATAAAAATACAAGCACACATGTATGAAATAT [CACACA_site3214],6.98
12,TATTTAATTACATGAACACACATTATGTATTTTTAA [CACACA_site2962],6.92
13,TAAAAAAAAAAAACAAGTACATATATAAATATATAT [XGTACX_site7537],6.81
14,TTTTTATTTAATAATATATTAATCATATAAATAAAT [GTGCAC_negctrl_site210],6.72
15,TTTATATAAAAAAATTGTACATATTTATTATAAACA [XGTACX_site2124],6.98
16,TGTATGCATATTTGATGTACGCACATATACTAATTT [XGTACX_site3159],7.26
17,TATATTCTTATTATTGCATGCTGCACGAAGATTTTC [TGCATGCA_site831],7.63
18,ATAATAAATAAAATAACACACATATATAGATATATA [CACACA_site6224],7
